Source: article PMC4336329 (PLoS ONE, 2015)
The whole screen tested about 310,000 compounds, of which about 14,000 (4.5%) showed an effect of 50% or more. Effects have a minus sign here. The list shows a part of the results.

biological target: human ether-à-go-go-related gene (hERG) potassium channel (human, UniProt Q12809); assay: primary screen, population patch clamp on CHO cells stably expressing hERG
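Also: peak tail current of the secondary pulse compared with the same well before compound.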

human ether-à-go-go-related gene (hERG) potassium channel, sequence (Q12809 whole entry, looked up): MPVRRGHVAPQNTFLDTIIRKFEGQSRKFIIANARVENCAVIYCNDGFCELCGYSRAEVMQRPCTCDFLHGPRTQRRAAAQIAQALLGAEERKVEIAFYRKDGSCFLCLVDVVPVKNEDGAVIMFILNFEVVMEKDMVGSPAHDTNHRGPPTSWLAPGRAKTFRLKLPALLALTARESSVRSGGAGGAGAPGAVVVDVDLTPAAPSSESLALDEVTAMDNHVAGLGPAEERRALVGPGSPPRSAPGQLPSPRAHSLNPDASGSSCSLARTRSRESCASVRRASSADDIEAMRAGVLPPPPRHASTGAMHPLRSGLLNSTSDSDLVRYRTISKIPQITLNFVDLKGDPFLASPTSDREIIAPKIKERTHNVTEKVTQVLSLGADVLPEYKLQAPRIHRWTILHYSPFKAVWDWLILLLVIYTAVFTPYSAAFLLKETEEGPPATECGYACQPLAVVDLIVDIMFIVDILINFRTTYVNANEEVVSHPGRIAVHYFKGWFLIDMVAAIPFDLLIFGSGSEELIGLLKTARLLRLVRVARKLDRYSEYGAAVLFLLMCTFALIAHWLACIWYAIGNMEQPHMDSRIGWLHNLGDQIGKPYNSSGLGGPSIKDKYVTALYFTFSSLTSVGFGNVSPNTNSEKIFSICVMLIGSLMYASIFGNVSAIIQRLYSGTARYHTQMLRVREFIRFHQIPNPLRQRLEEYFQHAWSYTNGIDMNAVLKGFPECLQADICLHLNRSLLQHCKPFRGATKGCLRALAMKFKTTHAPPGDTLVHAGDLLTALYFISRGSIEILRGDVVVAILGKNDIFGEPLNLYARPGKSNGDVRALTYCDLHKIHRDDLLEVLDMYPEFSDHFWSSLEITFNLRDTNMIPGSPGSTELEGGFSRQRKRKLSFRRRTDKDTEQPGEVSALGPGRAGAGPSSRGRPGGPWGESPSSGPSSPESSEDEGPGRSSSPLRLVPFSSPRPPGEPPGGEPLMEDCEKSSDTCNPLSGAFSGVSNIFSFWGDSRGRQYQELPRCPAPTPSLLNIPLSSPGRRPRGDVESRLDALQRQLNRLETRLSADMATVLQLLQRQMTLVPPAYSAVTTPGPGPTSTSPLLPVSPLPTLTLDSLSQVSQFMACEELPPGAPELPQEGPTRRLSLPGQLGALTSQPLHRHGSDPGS

Structure (SMILES) | hERG current change (%, negative = inhibition) at 10uM [%]
O=C(c1ccc(N2CCN(C3CC(=O)N(Cc4cccs4)C3=O)CC2)cc1)c1cccnc1 (centres unmarked) | -73.5
COc1ccc(S(=O)(=O)N2CCC(C)CC2)cc1Br | -16.7
COc1ccc(OC)c(NC(=O)CC2SC(=N)N(c3ccccc3)C2=O)c1 (centres unmarked) | -6.01
COc1ccc(/C(O)=C2/C(=O)C(=O)N(CCN(C)C)C2c2ccc(OC)c(OC)c2)c(C)c1 (centres unmarked) | 11
Fc1ccc(-c2nnc(CSc3nnc(-c4ccc5c(c4)OCO5)o3)o2)cc1 | -7.12
C#CCOCCOCCOCCNc1nc(N2CCN(C(=O)CCCCCCCCCCNC(=O)Cn3cc(C[C@@H](C)O)nn3)CC2)nc(N2CCN(C(=O)CCCCCCCCCCNC(=O)[C@@H]([C@H](C)O)n3cc(C)nn3)CC2)n1 | 13.1
CCOC(=O)C1=NN(C(C)=O)C2(CC(=O)N(c3ccc(C)c(C)c3)C2=O)C1 (centres unmarked) | -9.76
Cc1cc2c(=O)[nH]cnc2s1 | 21.7
CC(C)(C)OCC(O)C[NH+]1CCN(C(=O)c2ccccc2)CC1.O=C([O-])C(=O)[O-] (centres unmarked) | 6.92
Cc1nc2cc([N+](=O)[O-])ccc2c(=O)n1-c1cccc(Br)c1 | -42.1
CCOc1cc(S(=O)(=O)NC2CCCCC2)ccc1F | 0.571
Clc1ccc(-c2nc3n(n2)Cc2ccccc2-3)cc1 | -1.39
O=C(CNC1CCCC1)Nc1ccc(S(=O)(=O)N2CCCCC2)cc1 | -0.797
O=C(CN1CCC(N2CCCCC2)CC1)N1CCOCC1.O=C(O)C(=O)O | 36.2
Cc1cc(/C=C2/SC(=O)NC2=O)c(C)n1-c1ccc(N2CCOCC2)cc1 | 11.6
COC(=O)c1cc(OC)c(OC)cc1NC(=O)CCCCCN1C(=O)CCC1=O | 21.7
COc1ccc(CNC(=O)C(CCSC)NC(=O)c2ccco2)cc1 (centres unmarked) | -11.9
CC(Cc1cccs1)NCc1ccccc1 (centres unmarked) | 4.35
CC(=O)Nc1ccc(S(=O)(=O)c2ccc(N)cc2)cc1N | 1.67
COc1ccc(C(=O)NCc2nnc(SCC(=O)Nc3nc4ccc(C)cc4s3)o2)cc1OC | 4.72
N#CC1=C(N)OC2=C(C(=O)CCC2)C1C1C=CCCC1 (centres unmarked) | -1.76
C/C(=N\NC(=O)c1ccc(Br)cc1)c1cccnc1 | 5.22
CC(C)CN1C(=O)c2ccccc2C1(O)Cc1ccccc1 (centres unmarked) | 2.19
